Assay results taken from the supplement of paper PMC12217912.
The list shows a part of the results. Sequences were assembled here from the parent chain. Inactive controls read about 0.05.

B1: TEV protease; numbered along this chain (parent)
chain: MGESLFKGPRDYNPISSSICHLTNESDGHTTSLYGIGFGPFIITNKHLFRRNNGTLVVQSLHGVFKVKDTTTLQQHLVDGRDMIIIRMPKDFPPFPQKLKFREPQREERICLVTTNFQTKSMSSMVSDTSCTFPSGDGIFWKHWIQTKDGQCGSPLVSTRDGFIVGIHSASNFTNTNNYFTSVPKNFMELLTNQEAQQWVSGWRLNADSVLWGGHKVFMVKPEEPFQPVKEATQL

Variants of: B1
Assay: raw area under fraction-flipped curve 0-4 h after induction (AUC4h, not background-subtracted), DNA-recorder readout of cleavage of the substrate (dimensionless); higher = more cleavage of the substrate by the protease variant
Settings: temperature: 34 °C; time window: 0-4 h after rhamnose induction
Procedure: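 In vivo DNA recorder in E. coli TOP10(DE3) ΔrhaA at 34 °C. Each TEVp single-site mutant (parent TEVp 0) is paired with a single-site variant of the 7-mer TEVs (canonical ENLYFQ|S). The substrate sits between flexible linkers in a Bxb1-sfGFP-TEVs-SsrA fusion, so cleavage stabilises Bxb1 and speeds flipping of a recombination array, read by NGS. The value is the raw area under the fraction-flipped curve over 0-4 h after rhamnose induction (AUC4h), with ≥20 reads per time point. It is not background-subtracted; inactive controls average about 0.047.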
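Note: Bxb1 expression induced with 0.2% (w/v) L-rhamnose at OD600 near 0.5, cultures sampled hourly, flipped fraction per protease–substrate barcode pair counted by paired-end Illumina sequencing.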

| Variant | area with substrate ECLYFQS | area with substrate EDLYFQS | area with substrate EELYFQS | area with substrate EGLYFQS | area with substrate EHLYFQS | area with substrate EILYFQS | area with substrate EKLYFQS | area with substrate EMLYFQS | area with substrate EQLYFQS | area with substrate ERLYFQS | area with substrate ESLYFQS | area with substrate EVLYFQS | area with substrate EWLYFQS | area with substrate EFLYFQS | area with substrate ELLYFQS | area with substrate EPLYFQS | area with substrate ETLYFQS | area with substrate EYLYFQS |
| --- | --- | --- | --- | --- | --- | --- | --- | --- | --- | --- | --- | --- | --- | --- | --- | --- | --- | --- |
| MGESLFKGPRDYNPISSSICHLTNESDGHTTSLYGIGFGPFIITNKHLLRRNNGTLVVQSLHGVFKVKDTTTLQQHLVDGRDMIIIRMPKDFPPFPQKLKFREPQREERICLVTTNFQTKSMSSMVSDTSCTFPSGDGIFWKHWIQTKDGQCGSPLVSTRDGFIVGIHSASNFTNTNNYFTSVPKNFMELLTNQEAQQWVSGWRLNADSVLWGGHKVFMVKPEEPFQPVKEATQL [F49L] | 0.0553 | 0.0733 | 0.0698 | 0.0519 | 0.0849 | 0.0494 | 0.0493 | 0.0297 | 0.0481 | 0.0718 | 0.0635 | 0.0544 | 0.081 | – | – | – | – | – |
| MGESLFKGPRDYNPISSSICHLTNESDGHTTSLYGIGFGPFIITNKHLFARNNGTLVVQSLHGVFKVKDTTTLQQHLVDGRDMIIIRMPKDFPPFPQKLKFREPQREERICLVTTNFQTKSMSSMVSDTSCTFPSGDGIFWKHWIQTKDGQCGSPLVSTRDGFIVGIHSASNFTNTNNYFTSVPKNFMELLTNQEAQQWVSGWRLNADSVLWGGHKVFMVKPEEPFQPVKEATQL [R50A] | 0.111 | – | 0.158 | 0.0945 | – | 0.124 | 0.12 | 0.152 | – | – | 0.109 | 0.107 | 0.0916 | 0.109 | 0.0061 | 0.124 | – | – |
| MGESLFKGPRDYNPISSSICHLTNESDGHTTSLYGIGFGPFIITNKHLFRENNGTLVVQSLHGVFKVKDTTTLQQHLVDGRDMIIIRMPKDFPPFPQKLKFREPQREERICLVTTNFQTKSMSSMVSDTSCTFPSGDGIFWKHWIQTKDGQCGSPLVSTRDGFIVGIHSASNFTNTNNYFTSVPKNFMELLTNQEAQQWVSGWRLNADSVLWGGHKVFMVKPEEPFQPVKEATQL [R51E] | 0.106 | – | – | 0.0921 | 0.0867 | 0.088 | 0.0766 | 0.118 | – | 0.121 | – | 0.0939 | – | 0.101 | 0.113 | 0.12 | 0.123 | 0.114 |
| MGESLFKGPRDYNPISSSICHLTNESDGHTTSLYGIGFGPFIITNKHLFRTNNGTLVVQSLHGVFKVKDTTTLQQHLVDGRDMIIIRMPKDFPPFPQKLKFREPQREERICLVTTNFQTKSMSSMVSDTSCTFPSGDGIFWKHWIQTKDGQCGSPLVSTRDGFIVGIHSASNFTNTNNYFTSVPKNFMELLTNQEAQQWVSGWRLNADSVLWGGHKVFMVKPEEPFQPVKEATQL [R51T] | 0.0959 | – | – | – | – | 0.15 | – | – | – | 0.172 | 0.122 | – | 0.133 | – | – | – | – | – |
| MGESLFKGPRDYNPISSSICHLTNESDGHTTSLYGIGFGPFIITNKHLFRVNNGTLVVQSLHGVFKVKDTTTLQQHLVDGRDMIIIRMPKDFPPFPQKLKFREPQREERICLVTTNFQTKSMSSMVSDTSCTFPSGDGIFWKHWIQTKDGQCGSPLVSTRDGFIVGIHSASNFTNTNNYFTSVPKNFMELLTNQEAQQWVSGWRLNADSVLWGGHKVFMVKPEEPFQPVKEATQL [R51V] | 0.0955 | 0.135 | 0.128 | – | – | 0.135 | – | 0.131 | – | 0.0862 | 0.1 | 0.0874 | – | – | – | 0.127 | – | 0.134 |
| MGESLFKGPRDYNPISSSICHLTNESDGHTTSLYGIGFGPFIITNKHLFRRNKGTLVVQSLHGVFKVKDTTTLQQHLVDGRDMIIIRMPKDFPPFPQKLKFREPQREERICLVTTNFQTKSMSSMVSDTSCTFPSGDGIFWKHWIQTKDGQCGSPLVSTRDGFIVGIHSASNFTNTNNYFTSVPKNFMELLTNQEAQQWVSGWRLNADSVLWGGHKVFMVKPEEPFQPVKEATQL [N53K] | 0.0768 | – | 0.0854 | 0.0945 | 0.0864 | 0.083 | 0.0939 | 0.0952 | 0.104 | 0.0862 | 0.1 | – | 0.0692 | – | – | 0.11 | – | 0.0764 |
| MGESLFKGPRDYNPISSSICHLTNESDGHTTSLYGIGFGPFIITNKHLFRRNNPTLVVQSLHGVFKVKDTTTLQQHLVDGRDMIIIRMPKDFPPFPQKLKFREPQREERICLVTTNFQTKSMSSMVSDTSCTFPSGDGIFWKHWIQTKDGQCGSPLVSTRDGFIVGIHSASNFTNTNNYFTSVPKNFMELLTNQEAQQWVSGWRLNADSVLWGGHKVFMVKPEEPFQPVKEATQL [G54P] | 0.0559 | – | – | – | 0.0586 | 0.0522 | 0.0702 | 0.0737 | 0.125 | 0.0589 | 0.0641 | – | 0.0617 | – | – | – | – | – |
| MGESLFKGPRDYNPISSSICHLTNESDGHTTSLYGIGFGPFIITNKHLFRRNNGWLVVQSLHGVFKVKDTTTLQQHLVDGRDMIIIRMPKDFPPFPQKLKFREPQREERICLVTTNFQTKSMSSMVSDTSCTFPSGDGIFWKHWIQTKDGQCGSPLVSTRDGFIVGIHSASNFTNTNNYFTSVPKNFMELLTNQEAQQWVSGWRLNADSVLWGGHKVFMVKPEEPFQPVKEATQL [T55W] | 0.0849 | 0.152 | – | 0.101 | – | 0.0931 | 0.0563 | 0.114 | 0.121 | 0.105 | – | 0.0818 | 0.0751 | – | 0.0868 | 0.109 | 0.102 | 0.0788 |
| MGESLFKGPRDYNPISSSICHLTNESDGHTTSLYGIGFGPFIITNKHLFRRNNGTLVVQSLEGVFKVKDTTTLQQHLVDGRDMIIIRMPKDFPPFPQKLKFREPQREERICLVTTNFQTKSMSSMVSDTSCTFPSGDGIFWKHWIQTKDGQCGSPLVSTRDGFIVGIHSASNFTNTNNYFTSVPKNFMELLTNQEAQQWVSGWRLNADSVLWGGHKVFMVKPEEPFQPVKEATQL [H62E] | 0.127 | – | 0.0938 | – | – | – | – | 0.0985 | 0.123 | – | 0.111 | 0.0946 | – | – | 0.098 | 0.11 | – | – |
| MGESLFKGPRDYNPISSSICHLTNESDGHTTSLYGIGFGPFIITNKHLFRRNNGTLVVQSLHEVFKVKDTTTLQQHLVDGRDMIIIRMPKDFPPFPQKLKFREPQREERICLVTTNFQTKSMSSMVSDTSCTFPSGDGIFWKHWIQTKDGQCGSPLVSTRDGFIVGIHSASNFTNTNNYFTSVPKNFMELLTNQEAQQWVSGWRLNADSVLWGGHKVFMVKPEEPFQPVKEATQL [G63E] | 0.0981 | 0.11 | 0.101 | 0.0724 | 0.116 | – | – | 0.0898 | 0.0644 | 0.0973 | – | – | – | – | 0.0824 | – | – | – |
